In PMC12040169 (PLOS Biology, 2025):
This is one part of the list.

These compounds were tested on T1, C. trachomatis L2/434/Bu expressing GFP (CTL2-GFP). Details: total inclusion area; 28.5 h, 10 µM; inhibitor.
T1 construct: L2/434/Bu GFP intracellular growth in HeLa cells
Design: species or system HeLa; C. trachomatis total inclusion area by high-content imaging, normalised to DMSO
Outline: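 Host cell viability was gauged from Hoechst-stained nuclei counts, while chlamydial growth was taken from total inclusion area and inclusion number per well. Cells were fixed and imaged by high-content microscopy once bulk GFP and resorufin fluorescence had been measured.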
`Cc1ccc(NC(=O)Cn2cnc3c(-c4ccccc4)csc3c2=O)cc1` [CBK287812] was tested, and the “% of control remaining” value was 91.1696.
In the case of `O=S(=O)(c1ccc(F)cc1)c1nc(-c2cccs2)oc1N1CCN(Cc2ccccc2)CC1` [CBK267672], the “% of control remaining” value is reported as 95.7932.
For `O=C(O)Cc1nnc(CNc2ccc(Cl)cc2)[nH]1` [CBK286651], the “% of control remaining” value was 47.7631.
`COCCN1CCCC(NS(=O)(=O)c2cccc(C(C)=O)c2)C1` (centres unmarked) [CBK305290] was tested, and the “% of control remaining” value was 72.2774.
`COc1ccccc1CCCNC(=O)c1ccc(=O)n(C)c1` [CBK282636] was tested, and the “% of control remaining” value was 107.348.
In the case of `Cc1ccc(C)c(C(=O)C2=C(O)C(=O)N(CCCN3CCOCC3)C2c2cccc([N+](=O)[O-])c2)c1` (centres unmarked) [CBK265503], the “% of control remaining” value is reported as 68.1564.
With `CCCn1c(SC(C)C(=O)Nc2ccc(S(=O)(=O)NC(C)C)cc2)n[nH]c1=O` (centres unmarked) [CBK295169] the “% of control remaining” value was 80.1776.
For `CCn1nc(CC(C)C)cc1C(=O)NCCc1cn2cccnc2n1` [CBK306553], the “% of control remaining” value was 90.7055.
In the case of `C[C@@H]1C(=O)O[C@H]2[C@H]1CC[C@@]1(C)Cc3sc(NC(=O)CCC(=O)O)nc3[C@@H](C)[C@H]21` [CBK289429], the “% of control remaining” value is reported as 114.541.
For `CC(C)(C)c1ccc(NC(=O)N(CCN)Cc2c[nH]c(-c3ccccc3)n2)cc1` [CBK046297C], the “% of control remaining” value was 10.1708.
`Cc1oc2cc(OCC(=O)NCC(=O)O)ccc2c(=O)c1-c1ccc(Cl)cc1` [CBK286697] was tested, and the “% of control remaining” value was 69.6365.
`Cc1cc(C)n(C(CC(=O)N2CCCCC2)C(=O)O)n1` (centres unmarked) [CBK286806] was tested, and the “% of control remaining” value was 103.62.
For `CC1=NN(c2nc(-c3cccc([N+](=O)[O-])c3)cs2)C(=O)C1/N=N/c1ccc(S(N)(=O)=O)cc1` (centres unmarked) [CBK262434], the “% of control remaining” value was 110.021.
For `Cc1ccc2c(c1)OC(C)(C)CC2NS(C)(=O)=O` (centres unmarked) [CBK307620], the “% of control remaining” value was 92.411.
With `CCCN1CCC(N2CCN(c3ccc([N+](=O)[O-])cc3)CC2)CC1` [CBK018459] the “% of control remaining” value was 80.6282.
`CN(C)CCCNC(=O)c1ccc(/C=N/O)[n+](C)c1` [CBK278284I] was tested, and the “% of control remaining” value was 119.92.
With `COc1cc(CN2CCC3(CC2)CN(CC(N)=O)c2ccccc23)cc(OC)c1OC` [CBK126774] the “% of control remaining” value was 89.3751.
With `COCCNc1nc(-c2cncc(OC)c2)cnc1N` [CBK063606] the “% of control remaining” value was 94.1685.
With `N#CCCCN1CCC(Oc2nccnc2OCC2COc3ccccc3O2)CC1` (centres unmarked) [CBK082994T] the “% of control remaining” value was 87.1408.
For `Oc1ccc(/C=C/c2nc(-c3ccccc3O)n(-c3ccccc3)n2)cc1` [CBK265289], the “% of control remaining” value was 93.4548.
`O=C1CC(c2ccco2)Cc2c1cnn2-c1nc2ccccc2s1` (centres unmarked) [CBK269292] was tested, and the “% of control remaining” value was 111.452.
With `O=C(NCc1ccccc1)c1ccc(NC(=O)c2cc(-n3cnnc3)ccc2Cl)cc1` [CBK267896] the “% of control remaining” value was 88.9704.
With `O=C(O)C[C@@H]1CCN(C(=O)c2ccco2)C[C@@H]1CC1=NCCc2cc(F)ccc21` [CBK289166] the “% of control remaining” value was 113.737.
For `CCCn1c(C)cc2cc(NC(=O)Cn3cc(C)nn3)ccc21` [CBK281548], the “% of control remaining” value was 86.7036.
In the case of `CN1CCN(c2ccc(-c3ccc(Cl)cc3)cn2)CC1` [CBK036945], the “% of control remaining” value is reported as 79.8107.
In the case of `Cl.Nc1ncc([C@@H]2O[C@H](CO)[C@H](O)C2O)c(=O)[nH]1` (some centres unmarked) [CBK201205], the “% of control remaining” value is reported as 100.583.
With `CC(C)Nc1nc2ccccc2nc1SCCN(C)C` [CBK103672] the “% of control remaining” value was 72.432.
For `CCc1nn(CC(=O)N(C)C)c(=O)c2cc3sc(C)cc3n12` [CBK284102], the “% of control remaining” value was 72.3931.
In the case of `CC(=O)N1CCC[C@H]2NC(=O)CNC(=O)C3(C/C=C/C[C@H]21)CCN(CC1CCC1)CC3` [CBK292129], the “% of control remaining” value is reported as 135.247.
For `O=C(O)C1C2CCC(O2)C1C(=O)Nc1ccc2c(c1)OCCO2` (centres unmarked) [CBK263677], the “% of control remaining” value was 96.3304.
With `COc1ccc(S(=O)(=O)NCCNC(=O)c2cc(-c3cccnc3)cnc2NCc2ccc3c(c2)OCO3)cc1` [CBK076379] the “% of control remaining” value was 98.0052.
In the case of `C1=CC2CC1CC2CN1CCN(Cc2cccnc2)CC1` (centres unmarked) [CBK027284], the “% of control remaining” value is reported as 108.329.
For `CCOC(=O)c1c(C)nc2ccccc2c1O` [CBK153666], the “% of control remaining” value was 88.0859.
For `Cc1ccc(N2CCN(C3=NC(=O)/C(=C\c4ccc(O)c([N+](=O)[O-])c4)S3)CC2)cc1` [CBK264347], the “% of control remaining” value was 120.366.
In the case of `C#CCOC(=O)Nc1cnc(N2CCOCC2)c(C(F)(F)F)c1` [CBK019679], the “% of control remaining” value is reported as 58.1796.
In the case of `COc1cc(Nc2cc(-c3ccco3)ncn2)cc(OC)c1OC` [CBK090706], the “% of control remaining” value is reported as 95.005.
For `CC(Nc1nc(-c2ccc([N+](=O)[O-])cc2)nc2ccccc12)c1ccccc1` (centres unmarked) [CBK264767], the “% of control remaining” value was 113.795.
`O=C(CN1C(=O)[C@@H]2CCCN2c2ncccc21)NC(c1ccccc1)c1ccccc1` [CBK286205] was tested, and the “% of control remaining” value was 116.88.
In the case of `O=C(Cc1cc(Cl)ccc1C(F)(F)F)NCCc1c[nH]c2ccc(Cl)cc12` [CBK159759], the “% of control remaining” value is reported as 65.4161.
In the case of `CCOC(=O)C(=O)N(C)c1c(CC)nc2c(OCc3ccccc3)cccn12` [CBK147879], the “% of control remaining” value is reported as 105.623.
For `C=CCN(C)C(=O)[C@H]1C[C@@H](O)[C@H](O)[C@@H]2N=C(Nc3ccc(OC)cc3)S[C@@H]21` [CBK288947], the “% of control remaining” value was 105.273.
In the case of `O=C(CSc1ccc(Cl)cc1)Nc1cccc(-c2nc3ncccc3o2)c1` [CBK264989], the “% of control remaining” value is reported as 99.5525.
With `O=C(Cn1c(-c2cncs2)nc2ccccc21)Nc1ccc(C(=O)N2CCCCC2)cc1` [CBK269439] the “% of control remaining” value was 102.444.
`Cc1cccc(Cl)c1OCC(O)CNCCc1ccccc1` (centres unmarked) [CBK003076] was tested, and the “% of control remaining” value was 1.408.
For `O=C(c1cccnc1)N1CCN(S(=O)(=O)c2ccc(F)cc2)CC1` [CBK264210], the “% of control remaining” value was 104.164.
`COc1ccccc1Cc1cccc(C2CCN(C(=O)c3ccccc3)CC2)n1` [CBK286236] was tested, and the “% of control remaining” value was 97.9719.
In the case of `O=C(Nc1ccc(Cl)cc1)Nc1cccc(C(=O)O)c1` [CBK269404], the “% of control remaining” value is reported as 66.8155.
`O=C(C1CC1)N1CC2CN(Cc3ccccc3)CC2C12CCOCC2` (centres unmarked) [CBK283055] was tested, and the “% of control remaining” value was 96.924.
For `CC(=O)Nc1ccc(Nc2cc(-c3ccc(Cl)cc3)ncn2)cc1` [CBK090720], the “% of control remaining” value was 97.4345.
With `Cc1cccc(-c2ncc(NC(=O)CCOc3ccccc3)nc2-c2ccc(N)cc2)c1` [CBK036655] the “% of control remaining” value was 85.128.
In the case of `Oc1c(-c2cccc(C(F)(F)F)c2)cnc2cccnc12` [CBK081290], the “% of control remaining” value is reported as 88.3877.
With `Cc1csc(-c2cnc(N3CCOCC3)c3nccn23)c1` [CBK091287] the “% of control remaining” value was 126.271.
For `CN(C)CCCNC(=O)C1CCCN(c2nc3c(-c4ccccc4)csc3c(=O)[nH]2)C1` (centres unmarked) [CBK215504], the “% of control remaining” value was 117.997.
For `COc1cccc2cc(C(=O)NCc3c(F)cccc3F)oc12` [CBK149794], the “% of control remaining” value was 77.6599.
With `Cc1ccc(S(=O)(=O)N2CCOCC2)cc1-c1cnc(N)c(-c2ccc(O)cc2)n1` [CBK122519] the “% of control remaining” value was 68.9833.
In the case of `O=C(NCCc1ccc(O)cc1)c1ccc2nc[nH]c2c1` [CBK153323], the “% of control remaining” value is reported as 83.3453.
`Cc1nn(C)cc1-c1cncn1Cc1cccc(OC(C)C)c1` [CBK281484] was tested, and the “% of control remaining” value was 91.6592.
`Cc1ccc(C(=O)NCc2cccnc2N(C)C2CCCCC2)cn1` [CBK306514] was tested, and the “% of control remaining” value was 128.029.
`Cn1cncc1CN(Cc1ccccn1)Cc1ccccc1Cl` [CBK282129] was tested, and the “% of control remaining” value was 89.0957.
With `CCC(CC)C(=O)N(C)c1c(C)nc2ccc(C(=O)NCCc3c[nH]c4ccccc34)cn12` [CBK146495] the “% of control remaining” value was 123.315.
`COc1ccc(-c2c(-c3ccc(OCc4cnn(-c5ccccc5)c4)c(C)c3O)n[nH]c2C)cc1` [CBK265006] was tested, and the “% of control remaining” value was 93.1013.
For `Brc1cccc(NN=C2CCCC2)n1` [CBK006748], the “% of control remaining” value was 74.8968.
`Cc1nc(CC(=O)Nc2ccc(N3CCOCC3)cn2)cs1` [CBK305251] was tested, and the “% of control remaining” value was 111.266.
In the case of `CN(C)c1ccc(CNC(=O)Cn2nc(C(=O)O)c3ccccc3c2=O)cc1` [CBK295330], the “% of control remaining” value is reported as 103.9.
`COCCn1cnnc1CN(C)C(=O)NC(C)c1nc2ccccc2[nH]1` (centres unmarked) [CBK307155] was tested, and the “% of control remaining” value was 64.2662.
`Cc1nc(C2CN(Cc3ccc(Cl)c4cccnc34)CCO2)no1` (centres unmarked) [CBK305384] was tested, and the “% of control remaining” value was 65.7062.
For `Cc1ccc(C2CC(=O)C(=CNCCN3CCN(C(=S)Nc4ccccc4)CC3)C(=O)C2)cc1` (centres unmarked) [CBK263665], the “% of control remaining” value was 98.3502.
With `O=C(Nc1ccc2oc(-c3cccnc3)nc2c1)c1ccc(-c2ccccc2OC(F)(F)F)o1` [CBK263872] the “% of control remaining” value was 87.4186.
`CCc1c(C)nc2n(c1=O)C(CS(=O)(=O)c1ccccc1)CS2` (centres unmarked) [CBK268949] was tested, and the “% of control remaining” value was 97.7477.
In the case of `Cc1nc2c(c(=O)[nH]1)CN(C1CCCCC1)CC2` [CBK282416], the “% of control remaining” value is reported as 90.5542.
With `S=c1[nH]ccn1Cc1cccs1` [CBK008454] the “% of control remaining” value was 96.1446.
`COc1ccc([C@@]23CC[C@@H](NC(=O)Nc4cccc(C(F)(F)F)c4F)C[C@@H]2CN(C)C3)cc1OC` [CBK063195A] was tested, and the “% of control remaining” value was 74.2053.
`COc1ccccc1NC(=O)CNC(=O)c1ccc([N+](=O)[O-])cc1` [CBK268657] was tested, and the “% of control remaining” value was 112.601.
`C[C@H](Nc1cncc(-c2ccc(F)cc2F)n1)c1ccccc1` [CBK065684] was tested, and the “% of control remaining” value was 92.3285.
For `Nc1ccc(-c2nc(-c3ccccc3)c3cc(-c4ccc5nc(-c6ccc(N)cc6)nc(-c6ccccc6)c5c4)ccc3n2)cc1` [CBK261152], the “% of control remaining” value was 67.2524.
With `Sc1nnc(CSCc2ccccc2Cl)n1-c1ccccc1` [CBK265219] the “% of control remaining” value was 105.099.
`Cc1nnnn1-c1cc(NC(=O)NCCCn2ccnc2)ccc1F` [CBK305349] was tested, and the “% of control remaining” value was 38.4227.
